# Laboratory results from paper PMC4336329 (PLoS ONE, 2015).
# Screen size: about 310,000 compounds; about 14,000 (4.5%) showed an effect of 50% or more. The effect is printed as a negative number. This is one part of the list.
# Biological target: human ether-à-go-go-related gene (hERG) potassium channel (human, UniProt Q12809)
# Experiment: primary screen, population patch clamp on CHO cells stably expressing hERG
# 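Further: peak tail current of the secondary pulse compared with the same well before compound.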
# Sequence of human ether-à-go-go-related gene (hERG) potassium channel (Q12809 whole entry, looked up): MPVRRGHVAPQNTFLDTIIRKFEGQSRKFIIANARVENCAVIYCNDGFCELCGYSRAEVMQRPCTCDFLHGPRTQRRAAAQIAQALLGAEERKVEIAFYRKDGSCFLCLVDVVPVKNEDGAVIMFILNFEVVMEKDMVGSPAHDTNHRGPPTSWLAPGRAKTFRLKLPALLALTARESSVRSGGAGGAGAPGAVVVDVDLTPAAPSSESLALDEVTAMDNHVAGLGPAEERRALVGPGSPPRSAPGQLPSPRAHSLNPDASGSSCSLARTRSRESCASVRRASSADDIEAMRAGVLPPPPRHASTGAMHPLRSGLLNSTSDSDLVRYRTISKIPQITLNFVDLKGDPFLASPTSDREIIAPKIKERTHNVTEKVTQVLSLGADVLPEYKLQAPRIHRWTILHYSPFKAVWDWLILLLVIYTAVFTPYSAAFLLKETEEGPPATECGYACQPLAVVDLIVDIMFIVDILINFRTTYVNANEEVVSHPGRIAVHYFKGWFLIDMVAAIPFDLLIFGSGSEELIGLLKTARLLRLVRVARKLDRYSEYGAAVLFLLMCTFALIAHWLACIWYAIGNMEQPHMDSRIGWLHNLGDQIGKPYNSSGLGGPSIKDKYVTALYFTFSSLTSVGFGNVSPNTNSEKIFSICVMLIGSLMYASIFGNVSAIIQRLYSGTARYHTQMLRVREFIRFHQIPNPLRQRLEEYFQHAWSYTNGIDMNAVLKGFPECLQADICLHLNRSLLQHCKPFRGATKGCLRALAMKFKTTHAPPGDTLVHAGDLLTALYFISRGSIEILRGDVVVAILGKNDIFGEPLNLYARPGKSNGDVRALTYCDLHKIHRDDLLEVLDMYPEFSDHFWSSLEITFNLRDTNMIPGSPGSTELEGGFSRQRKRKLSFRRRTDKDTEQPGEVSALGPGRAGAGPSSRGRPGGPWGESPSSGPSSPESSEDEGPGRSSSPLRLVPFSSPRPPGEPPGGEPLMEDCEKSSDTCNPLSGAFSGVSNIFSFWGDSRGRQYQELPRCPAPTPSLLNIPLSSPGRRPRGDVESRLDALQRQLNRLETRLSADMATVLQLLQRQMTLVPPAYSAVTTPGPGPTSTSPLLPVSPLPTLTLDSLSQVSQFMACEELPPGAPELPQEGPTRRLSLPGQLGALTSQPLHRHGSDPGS
row,SMILES,"hERG current change (%, negative = inhibition) at 10uM"
1,CCS(=O)(=O)Nc1ccc2[nH]c(=O)[nH]c2c1,42.4%
2,Cc1ccc(S(=O)(=O)N2CCC(N3CCC(C)CC3)CC2)cc1,-29.1%
3,Cc1ccccc1C(=O)N1CCC(n2nccc2NC(=O)C2CC2)CC1,10.3%
4,O=C(Cn1nc(C(=O)O)c2ccccc2c1=O)c1cc(F)ccc1F,22.5%
5,O=C(CNC(=O)c1ccccc1Cl)N/N=C/c1ccc2c(c1)OCO2,8.33%
6,Cc1cc(N2CCCCC2)c(F)cc1[N+](=O)[O-],-6.63%
7,O=C(NC1CCCCC1)c1cc(Cl)ccc1[N+](=O)[O-],-4.63%
8,Cc1ccc(C)c(NC(=S)c2ccc3ccccc3n2)c1,-6.88%
9,COc1ccc2oc(C(=O)OCC(=O)N3C(C)CCCC3C)c(C)c2c1 (centres unmarked),-14.8%
10,Cc1ccc(NC(=O)CCc2nc3sc4c(c3c(=O)[nH]2)CCCC4)nc1,8.92%
11,O=C1CCNc2c(Cl)cccc21,11.4%
12,Cc1nc([N+](=O)[O-])c(Br)n1CC(=O)c1ccccc1,-11.9%
13,COc1ccc(C(=O)C2CCN(C(=S)NCC3CCCO3)CC2)cc1 (centres unmarked),-7.23%
14,COc1ccc(S(=O)(=O)N2CCN(C(=O)c3cc(-c4ccccc4OC)n[nH]3)CC2)cc1,-6.19%
15,O=C1C=C(c2ccc(Br)c3ccccc23)C[C@@H](c2ccc3c(c2)OCO3)C1,1.98%
16,CCNS(=O)(=O)c1ccc(S(=O)(=O)N(Cc2ccccn2)C2CCCCC2)cc1,12.5%
17,O=C(NN1C(=O)NC2(CCCCC2)C1=O)c1ccc(-c2ccccc2Cl)o1,-6.36%
18,O=C(COC(=O)c1ccccc1Cc1ccccc1)Nc1ccc(SC(F)F)cc1,3.47%
19,CN(C(=O)c1cccc(Br)c1)C1CCS(=O)(=O)C1 (centres unmarked),-5.59%
20,Cc1ccc2nc(-c3cccc(Br)c3)cc(C(=O)NC3CC3)c2c1,13.7%
21,COc1cc2[nH]c(=O)n(CCC(=O)NC3CCCC3)c(=O)c2cc1OC,6.49%
22,O=C(CN1CCCCCC1)Nc1ccc([N+](=O)[O-])cc1Br,6.13%

row,SMILES,"hERG current change (%, negative = inhibition) at 10uM"
1,COC(=O)c1c(NC(=O)c2nn(C)cc2Cl)sc2c1CCCC2,7.27%
2,Cc1cccc(C(=O)NN2S(=O)(=O)c3ccccc3S2(=O)=O)c1,18.2%
3,O=[N+]([O-])c1ccc2c(c1)[nH]c(=S)n2-c1ccccc1,36.4%
4,CCOC(=O)C1=C(N2CCCCC2)c2cc3c(n2C1=O)CCCC3,-11.3%
5,COc1cc(C(=O)Nc2ccc(S(=O)(=O)Nc3cc(C)nc(C)n3)cc2)cc(OC)c1OC,19.3%
6,Cc1ccc(Nc2c([N+](=O)[O-])ccc3nonc23)c(C)c1,19.2%
7,CCOC(=O)c1nnn(-c2nonc2N)c1CSc1ccccc1,-33.3%
8,CCOC(=O)C1=C(C)N(C)C(=O)NC1c1c(OC)ccc2ccccc12 (centres unmarked),17.7%
9,Cc1cc(C)cc(C(=O)Nc2cccc(NC(=O)c3ccco3)c2)c1,-14.2%
10,COc1ccc(CN(C)C(=O)c2ccc(Cl)c(S(=O)(=O)NCc3cccnc3)c2)cc1F,-46.5%
11,COc1ccccc1NS(=O)(=O)c1ccc(C)c(C(=O)NCCCN2CCCC2=O)c1,14%
12,Cn1cnc(S(=O)(=O)NC2CCN(Cc3ccccc3)CC2)c1,20%
13,O=c1[nH]c(CN2CCN(S(=O)(=O)c3ccc4c(c3)OCCO4)CC2)nc2sc3c(c12)CCCC3,8.84%
14,CCCCCN(C(=O)CCC(=O)OCC(=O)NCc1ccc(OC)cc1)c1c(N)n(CCCC)c(=O)[nH]c1=O,-3.86%
15,O=S1(=O)C=CC(c2ccccc2)C1 (centres unmarked),13.1%
16,CC(O)CN(C)CC/C=C1/c2ccccc2CSc2ccccc21.Cl (centres unmarked),-21.9%
17,Cc1cc(C)nc(NC(=O)c2ccc(Cl)cc2[N+](=O)[O-])c1,-4.62%
18,Cc1cc(=O)[nH]c(-c2cccnc2)n1,31.8%
19,COc1ccc(Br)cc1CN(C)CC(=O)Nc1cc(Cl)ccc1Cl,4.8%
20,CCCCN(CC)CCNC(=O)c1cc2c(=O)n(C)c3ccccc3c2n1C,-15.6%
21,CC(C)n1nc(C(=O)Oc2ccc(Cl)cc2)c2ccccc2c1=O,5.39%
22,CCCCC1CN2CCc3c([nH]c4ccccc34)C2(C)C1.Cl (centres unmarked),-47.2%
